Consider one molecule from patent US12291562B2, “Reagents and assays using modified integrin domains” (Rush University Medical Center, priority 2019, dated 2025).

For assay [1], the system named is CD11b A-domain polypeptides. Description: Conformation selectivity in counterscreen and dilution series ELISA. Format: binding, human. The note with it: conclusion from ELISA data. How it is done:
(§1) After 2 rounds of enrichment against the primary target, positive binders were identified by phage ELISA and analyzed by restriction mapping & sequencing for identification of unique clones. Small scale phage growths were diluted 1:5 in TBS+casein. Nunc Maxi-Sorp strip wells were coated at ˜5 μg/ml of each test protein overnight at 4° C. and blocked with TBS+casein. The diluted phage were applied and allowed to bind for 1 hour with shaking. The wells were washed 4 times with TBS+0.05% Tween20 and twice with TBS. Bound phage were detected by incubation for 1 hour with anti-M13-HRP and after washing as above, developed with TMB. Absorbance at 450 nm was read after acidification of the wells.
High binding clones were included in a counterscreen ELISA against other CD11b A-domain polypetides which produced the following data:
To confirm binding, a dilution series experiment was carried out. Select clones were subjected to a dilution series which generated the following data: […]
For orientation: The purpose of a counterscreen is to sort out artefacts and off-target activity.

Assay [2] can be described thus: Phage ELISA on blocked well. The note with it: Table 5, scFv phage diluted 1:5. Format: binding. The method, then: as §1
In general terms: In an ELISA, binding on a coated surface is turned into a signal by an enzyme label.

B1: Clone 2: scFv phage clone, VL-Linker-VH, SEQ ID NO: 61 (protein)
scFv: SSELTQDPAVSVALGQTVRITCQGDSLRSYYASWYQQKPGQAPVLVIYGKNNRPSGIPDRFSGSSSGNTASLTITGAQAEDEADYYCNSRDSSGNHLVFGGGTKLTVLGEGKSSGSGSESKAS[about 100 residues not listed]YMVRGGGIDYWGQGTLVTVSS
modifications: Clone 2
Turning to B1, the “Selectivity of binding to CD11b A-domain polypeptides mutationally stabilized in active conformation over the other conformations” value in assay [1] is “limited or no selectivity”. Also, in assay [2], the “ELISA absorbance at 450 nM, Blocked well” value worked out at 0.049.
